# According to PubChem BioAssay AID1476 (National Center for Advancing Translational Sciences (NCATS), 2009):
# Screen size: about 200,000 compounds; about 4,500 (2.2%) were called active. The shares of active, inactive and inconclusive entries below differ from those in the screen. Calls come from the whole dose curve; as a rule, active = well fitted inhibition curve with a large enough effect; inconclusive = small, poorly fitted or top-dose-only effect, or effect the other way; inactive = flat fitted curve, though single readings scatter. Potencies beside an inconclusive call are fits to weak or partial responses and may not hold up.
# Target: Cruzipain (Trypanosoma cruzi) (UniProt P25779)
# Assay: qHTS Assay for Promiscuous and Specific Inhibitors of Cruzain (without detergent); note: nearly all actives have a fitted effect of over 40% in size;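 for max response, negative = inhibition: plate controls were enzyme without inhibitor for no effect and buffer without enzyme for full effect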
# Conditions: purified cruzain, Z-FR-AMC fluorescence, no detergent
# How it was run: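 Detergent-free condition (0.00005% Triton X-100) in acetate buffer pH 5.5 with DTT. 1.5 nM enzyme and compound were pre-mixed 15 min, then 2 uM Z-FR-AMC substrate added; reaction progress from fluorescence change between first and third reads (60 s).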
# Potency is the fitted concentration of half-maximal effect; tags give direction and shape of the fitted curve.
# Sequence of UniProt P25779 (P25779 whole entry, looked up): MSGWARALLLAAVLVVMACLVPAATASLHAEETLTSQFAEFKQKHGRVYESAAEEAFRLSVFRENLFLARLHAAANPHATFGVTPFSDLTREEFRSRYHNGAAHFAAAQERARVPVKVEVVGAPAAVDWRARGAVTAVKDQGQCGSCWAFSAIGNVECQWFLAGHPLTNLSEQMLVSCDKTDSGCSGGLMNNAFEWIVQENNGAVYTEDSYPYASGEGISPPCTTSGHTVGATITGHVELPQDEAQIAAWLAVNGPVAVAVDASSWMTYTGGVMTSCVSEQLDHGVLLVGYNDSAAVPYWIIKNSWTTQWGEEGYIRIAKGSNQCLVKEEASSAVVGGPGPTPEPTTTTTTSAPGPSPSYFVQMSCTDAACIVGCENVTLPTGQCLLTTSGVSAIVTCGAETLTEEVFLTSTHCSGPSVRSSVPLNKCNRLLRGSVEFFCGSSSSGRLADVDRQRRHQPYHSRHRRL
SMILES,"max response, negative = inhibition",Potency
CCOc1ccc(NC(=O)Cn2c(=O)n(CC3CCC(C(=O)NCCc4ccccc4)CC3)c(=O)c3ccccc32)cc1 (stereo not given),inactive: 2.9%,–
N#C/C(=N\Nc1ccc(S(=O)(=O)N2CCCCC2)cc1)C(N)=S,–,"inconclusive: 31.6 µM [inhibitor, single point]"
O=C(OCCN=C1NS(=O)(=O)c2ccccc21)c1cccnc1,inactive: 3.48%,–
COc1cc(C(=O)NC(c2ccccc2Cl)c2cc(Cl)c3cccnc3c2O)cc(OC)c1OC (stereo not given),–,"inconclusive: 3.98 µM [activator, partial curve]"
Cc1cc(=O)n(Cc2c(F)cccc2Cl)c2c1c(C)nn2-c1cccc(F)c1,inactive: -4.93%,–
CCOc1cccc(C(=O)Nc2nc(-c3ccc(S(=O)(=O)N4CCOCC4)cc3)cs2)c1,–,"inconclusive: 25.1 µM [inhibitor, single point]"
CCNc1ncc2nc(C)c(=O)n(CCC#N)c2n1,–,"inconclusive: 25.1 µM [inhibitor, single point]"
Cc1cccc(C(=O)Nc2c(C(=O)N3CCN(c4ccc(F)cc4)CC3)oc3ccccc23)c1,–,"inconclusive: 39.8 µM [inhibitor, single point]"
CCn1ccc2c(OCC(=O)Nc3ccc(C)c(Cl)c3)cccc2c1=O,–,"inconclusive: 39.8 µM [activator, single point]"
CCN(CC)c1cc(C)c2cc(NC(=O)c3cc(OC)cc(OC)c3)ccc2n1,inactive: 2.13%,–
CCCn1c(=N)c(C#N)cc2c(=O)n3ccccc3nc21,–,"inconclusive: 25.1 µM [inhibitor, single point]"
COCc1cc(C)nc2sc3c(c12)NC(c1ccccc1C(=O)O)N(c1cccc(C(F)(F)F)c1)C3=O (stereo not given),–,"inconclusive: 10 µM [activator, partial curve]"
COc1ccc(-c2cn3c(n2)sc2cc(C(=O)NC(C)C45CC6CC(CC(C6)C4)C5)ccc23)cc1 (stereo not given),inactive: 13.3%,–
O=C(N/N=C/C=C/c1ccco1)/C(=C/c1ccccc1)NC(=O)c1ccccc1,–,"inconclusive: 39.8 µM [inhibitor, single point]"
Cc1ccc(N2C(=O)CC(N(CCc3ccccc3)C(=S)Nc3ccc(N(C)C)cc3)C2=O)cc1 (stereo not given),–,"inconclusive: 25.1 µM [inhibitor, single point]"
O=C(COC(=O)c1cc(S(=O)(=O)N2CCCCC2)ccc1N1CCOCC1)NC1CCCCC1,–,"inconclusive: 31.6 µM [activator, single point]"
COc1ccc(CNC(=O)CC2N=C3c4ccccc4N=C(SCC(=O)Nc4ccc(C(C)C)cc4)N3C2=O)cc1 (stereo not given),–,"inconclusive: 31.6 µM [activator, single point]"
CCOC(=O)C1=C(CSc2nc(-c3ccccc3)ccc2C#N)OC(N)=C(C#N)C1c1ccc(OC)cc1 (stereo not given),–,active: 15.8 µM
COC(=O)CCCn1c(-c2ccc(C)cc2)c(C)n2c3c(=O)n(C)c(=O)n(C)c3nc12,inactive: -3.77%,–
COc1cc(S(=O)(=O)N2CCOCC2)ccc1NC(=O)COC(=O)C12CC3CC(CC(C3)C1)C2,–,"inconclusive: 25.1 µM [activator, partial curve]"

SMILES,"max response, negative = inhibition",Potency
CC1CCN(C(=O)c2ccc3c(c2NCCO)C(=O)c2ccccc2C3=O)CC1,–,"inconclusive: 31.6 µM [activator, single point]"
COC(=O)c1ccc(COc2ccccc2/C=N/NS(=O)(=O)c2ccc(C)cc2)cc1,–,"inconclusive: 39.8 µM [inhibitor, single point]"
Cc1ccccc1-n1nc2c(c1NC(=O)/C=C\c1ccc3c(c1)OCO3)CSC2,–,"inconclusive: 39.8 µM [inhibitor, single point]"
COc1ccc(CNC(=O)Cn2ncc3c(=O)oc4ccccc4c32)c(OC)c1,inactive: -7%,–
O=C(COC(=O)CCC1CCCC1)Nc1nc2c(F)c(F)c(F)cc2s1,–,active: 10 µM
CCOC(=O)c1sc(Nc2nc3c(OC)cccc3s2)nc1C,–,"inconclusive: 25.1 µM [activator, partial curve]"
NC(=S)N/N=C/c1ccc(-c2cc(Cl)ccc2Cl)o1,–,active: 0.631 µM
Cn1c(C(C#N)C(=O)Cc2cccc3ccccc23)nc2ccccc21 (stereo not given),–,"inconclusive: 39.8 µM [inhibitor, single point]"
Cc1ccc(-n2nnnc2SCC(=O)c2c(N)n(CC(C)C)c(=O)n(C)c2=O)cc1,–,"inconclusive: 31.6 µM [inhibitor, single point]"
CCn1ncc(/C=N\NC(=O)c2ccc3c(c2)c(C)c(C)n3Cc2ccccc2)c1C,–,"inconclusive: 39.8 µM [activator, single point]"
Nc1ccc2c3c(cccc13)CC2,–,"inconclusive: 39.8 µM [inhibitor, single point]"
CCN1CCSc2ccc(C(=O)NCc3ccc(F)cc3)cc21,inactive: -8.57%,–
O=[N+]([O-])c1cccc(S(=O)(=O)Nc2nc3ccccc3nc2Nc2cccc(S(=O)(=O)N3CCCCC3)c2)c1,–,"inconclusive: 5.01 µM [inhibitor, full curve]"
CCOC(=O)c1sc(NC(=S)NC(=O)c2ccccc2Cl)c(C(=O)OCC)c1C,–,"inconclusive: 10 µM [inhibitor, partial curve]"
CCCc1nc2ccccc2c(C(=O)OCc2nnc(-c3cc(OC)c(OC)c(OC)c3)o2)c1CC,–,"inconclusive: 31.6 µM [activator, single point]"
Cc1cc(C)cc(NC(=O)CSc2nc3c(oc4ccccc43)c(=O)n2-c2ccccc2)c1,–,"inconclusive: 20 µM [inhibitor, partial curve, poor fit]"
COc1cccc(Nc2nc(-c3cccc(N4C(=O)c5ccccc5C4=O)c3)cs2)c1,–,active: 7.94 µM
CCN(CC)C(=O)c1sc2c(c1C)c(=O)n(CCc1ccccc1)c(=O)n2Cc1ccc(C)cc1,–,"inconclusive: 15.8 µM [activator, partial curve]"
CCOc1cc2c(cc1OCC)C(CC(=O)OC)N(C(=O)Nc1cc(OC)ccc1OC)CC2 (stereo not given),–,"inconclusive: 39.8 µM [activator, single point]"
Cc1ccc(C)c(N2CCN(C(=O)CCS(=O)(=O)c3ccc4c(c3)oc(=O)n4C)CC2)c1,–,"inconclusive: 39.8 µM [activator, single point]"

SMILES,"max response, negative = inhibition",Potency
Cc1ccc(NC(=O)CN2C(=O)C(c3ccc(C)cc3)=NC23CCCCCC3)cc1,–,"inconclusive: 31.6 µM [inhibitor, single point]"
Cc1nnc(NC(=O)CSc2nnc(CNC(=O)C34CC5CC(CC(C5)C3)C4)n2C2CCCCC2)s1,–,"inconclusive: 31.6 µM [activator, single point]"
COc1ccc(-n2c(NC(=O)c3ccco3)c(C#N)c3nc4ccccc4nc32)cc1,–,"inconclusive: 39.8 µM [activator, single point]"
COc1ccc(S(=O)(=O)NCCc2sc(-c3cccnc3)nc2C)cc1OC,inactive: -4.37%,–
CC(=O)c1c(C)n(S(=O)(=O)c2ccc(Cl)cc2)c2ccc(NS(=O)(=O)c3ccc(Cl)cc3)cc12,–,"inconclusive: 7.94 µM [inhibitor, single point]"
CCCCOc1ccc(N2C(=O)CC(N(CCc3ccccc3)C(=O)/C=C/C(=O)O)C2=O)cc1 (stereo not given),–,"inconclusive: 25.1 µM [activator, partial curve]"
CCCCCCN(C(=O)CCCCCN1C(=O)NC(c2ccc(Cl)cc2)C(C(=O)OCc2ccccc2)=C1C)C(C(=O)NCCCC)c1ccc(OCC(=O)OC)c(C(=O)OC)c1 (stereo not given),–,"inconclusive: 39.8 µM [activator, single point]"
C/C=C/COC(=O)c1[nH]c2c(c1C)C(=O)CC(c1ccco1)C2 (stereo not given),–,"inconclusive: 39.8 µM [inhibitor, single point]"
CC(C)c1ccc(-c2noc(C3CCCN(S(C)(=O)=O)C3)n2)cc1 (stereo not given),–,"inconclusive: 31.6 µM [activator, single point]"
Cc1ccc(C)c(NS(=O)(=O)c2cc(C(=O)Nc3ccccc3-c3ccccc3)ccc2C)c1,–,"inconclusive: 31.6 µM [inhibitor, single point]"
COc1ccc(C)cc1NC(=O)C1CCC(CNS(=O)(=O)c2ccc3c(c2)CCCC(=O)N3)CC1 (stereo not given),–,"inconclusive: 39.8 µM [activator, single point]"
Cn1cccc1Cc1nnc(SCC(=O)N2CCOCC2)n1-c1ccc(F)cc1,–,"inconclusive: 31.6 µM [activator, single point]"
COc1ccccc1NC(=O)c1sc2nc(-c3ccco3)ccc2c1N,–,"inconclusive: 39.8 µM [inhibitor, single point]"
CCc1ccccc1NC(=O)c1nn(-c2ccc(C)cc2)c(=O)c2c1c1ccccc1n2C,inactive: 5.86%,–
CCS(=O)(=O)n1nc(-c2ccco2)nc1NCc1ccc(C(C)C)cc1,–,"inconclusive: 25.1 µM [activator, single point]"
CCCCn1c(SCC(=O)Nc2cccc(OC)c2)nc2ccc(N3CCOCC3)cc2c1=O,–,"inconclusive: 39.8 µM [activator, single point]"
COc1ccc(NC(=O)CSc2nnc(Cc3cccn3C)n2-c2ccc(C)cc2)cc1OC,–,"inconclusive: 39.8 µM [activator, single point]"
CN(C1CCCCC1)S(=O)(=O)c1ccc2c(c1)c(=O)c(C(=O)N1CCN(c3ccc(F)cc3)CC1)cn2C,inactive: -3.19%,–
CCCCCCNC(=O)CCc1c(C)nc2nc(-c3cc(OC)cc(OC)c3)nn2c1C,–,"inconclusive: 20 µM [activator, partial curve]"
Cc1c(Cl)cccc1NC(=O)Nc1nnc(N(C)C2CCCCC2)s1,–,"inconclusive: 25.1 µM [activator, partial curve]"
